Assay results published in paper PMC6919601, “Identification of Plasmodium dipeptidyl aminopeptidase allosteric inhibitors by high throughput screening” (PLoS ONE, 2019).
In all, about 110,000 compounds went through this assay and about 230 (0.21%) showed an effect of 50% or more. The list shows a part of the results.

Target: DPAP1 (Plasmodium falciparum, UniProt Q8IIJ9)
Assay: primary screen, percent inhibition; read by cleavage of a fluorogenic dipeptide substrate; higher = more effect of the substance
Set-up: species or system P. falciparum D10 trophozoite lysates; single well
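Note: 30 min substrate incubation versus DMSO and 10 µM JCP410 controls.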

Chain of DPAP1 (Q8IIJ9 whole entry, looked up): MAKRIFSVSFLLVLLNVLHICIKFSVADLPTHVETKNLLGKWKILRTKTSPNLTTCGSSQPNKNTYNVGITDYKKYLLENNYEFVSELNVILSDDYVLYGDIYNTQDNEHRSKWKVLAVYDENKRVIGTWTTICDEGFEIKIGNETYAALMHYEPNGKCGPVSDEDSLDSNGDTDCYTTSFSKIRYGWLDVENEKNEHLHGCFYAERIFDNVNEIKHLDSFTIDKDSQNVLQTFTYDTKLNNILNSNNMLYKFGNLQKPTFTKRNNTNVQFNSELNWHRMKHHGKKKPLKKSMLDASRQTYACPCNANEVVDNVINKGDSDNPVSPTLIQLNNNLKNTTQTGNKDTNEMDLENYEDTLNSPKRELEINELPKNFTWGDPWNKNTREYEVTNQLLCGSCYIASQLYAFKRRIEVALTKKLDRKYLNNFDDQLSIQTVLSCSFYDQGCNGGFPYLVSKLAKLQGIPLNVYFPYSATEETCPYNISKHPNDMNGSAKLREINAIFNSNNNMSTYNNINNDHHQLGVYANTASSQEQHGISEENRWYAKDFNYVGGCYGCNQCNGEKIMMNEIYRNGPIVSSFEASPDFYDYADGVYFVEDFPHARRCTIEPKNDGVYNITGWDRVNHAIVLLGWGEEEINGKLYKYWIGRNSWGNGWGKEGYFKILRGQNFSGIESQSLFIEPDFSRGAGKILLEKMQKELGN

Compared with `COc1cccc2cc(C(=O)NC(C)(C)C)c(=O)oc12`, `COc1ccc(-c2onc(C)c2C)cc1S(=O)(=O)NC(C)(C)C` is lower in “% Inhibition @ 10 uM” value: 1.32% for the first, -1.7% for the second.

Going from `CCOCCCNC(=O)CSCc1nc(-c2ccc(C)cc2)oc1C` to `CCOCCCNC(=O)c1ccc2c(c1)sc1nc(-c3ccc(C)cc3)cn12`, the “% Inhibition @ 10 uM” value falls from 0.689% to 0.526%.

Going from `COc1ccc(N2CC(C(=O)Nc3cc(Cl)cc(Cl)c3)CC2=O)cc1` (centres unmarked) to `COc1ccc(N2C(=O)CC3CS(=O)(=O)CC32)cc1` (centres unmarked), the “% Inhibition @ 10 uM” value falls from 2.53% to 1.93%.

First: CCCCc1ccc(C2C(C#N)=C(N)OC3=C2C(=O)CCC3)s1 (centres unmarked)
Second: N#CC1=C(N)OC2=C(C(=O)CC(c3ccccc3)C2)C1c1ccc(Cl)cc1Cl (centres unmarked)
The “% Inhibition @ 10 uM” value of the first is higher: 4.3% for the first, -1.38% for the second.

Compared with `Cc1ccc(CN(CC(=O)N2CCN(c3ccccc3)CC2)S(=O)(=O)c2ccc(C)cc2)cc1`, `CC(=O)N1CCN(S(=O)(=O)c2ccc(C)cc2)C1C` (centres unmarked) is lower in “% Inhibition @ 10 uM” value: 2.84% for the first, -3.75% for the second.

Going from `CCC1=NC(c2ccc(OC)cc2OC)N(O)C1(C)C` (centres unmarked) to `COc1ccc(OC)c(/C=C2\SC(N3CCN(C)CC3)=NC2=O)c1`, the “% Inhibition @ 10 uM” value falls from -1.4% to -2.98%.

Compared with `COCc1cc(C)nc2c1C(=O)NC(c1cccnc1)N2Cc1ccccc1` (centres unmarked), `O=c1c2ccccc2nc(Cc2ccccc2)n1-c1cccc(O)c1` is lower in “% Inhibition @ 10 uM” value: 7.89% for the first, 4.22% for the second.

First: O=C(CC(O)(c1ccccc1)C(F)(F)F)c1cccs1 (centres unmarked)
Second: OCCN(Cc1ccccc1)Cc1cccc(C(F)(F)F)c1
The “% Inhibition @ 10 uM” value of the first is lower: -1.91% for the first, -0.0494% for the second.

Going from `CCC(C)(C)C1CCC2(CC1)NC(=S)N(C)N2` (centres unmarked) to `CCn1c2ccccc2c2cc(CNC3CCCCC3)ccc21`, the “% Inhibition @ 10 uM” value falls from 5.3% to -1.54%.

Compared with `COc1ccc(Cl)cc1NS(=O)(=O)c1cc(F)ccc1OC`, `CCOc1ccc(S(=O)(=O)NCc2nc3ccccc3[nH]2)cc1C` is lower in “% Inhibition @ 10 uM” value: 4.53% for the first, 1.32% for the second.

Going from `Cc1c(C(=O)N2CCCC2)oc2c1-c1nn(CC(=O)O)cc1CC2` to `Nc1ncc(Br)cc1S(=O)(=O)NCCC(=O)NCCN1CCCCCC1`, the “% Inhibition @ 10 uM” value falls from 4.79% to -1.87%.

First: Cc1ccc(C23CC4CC(CC(NC(=O)N5CCN(C)CC5)(C4)C2)C3)cc1
Second: Cc1ccc(NC(=O)C23CC4CC(C2)CC(n2cnc(Cl)n2)(C4)C3)cc1
The “% Inhibition @ 10 uM” value of the first is higher: -1.81% for the first, -6.39% for the second.

First: O=C(c1ccccc1)c1cc2cc(Cl)ccc2[nH]1
Second: O=C1Nc2ccccc2Sc2ccccc21
The “% Inhibition @ 10 uM” value of the first is lower: -5.33% for the first, 1.39% for the second.

Going from `CCOc1ccc(NC(=N)Nc2nc(C)cc(O)n2)cc1` to `O=C(CSc1nc(O)c2ccccc2n1)Nc1ccc(Br)cc1F`, the “% Inhibition @ 10 uM” value rises from 0.755% to 4.57%.

Compared with `CC1CN(C(=O)c2cccnc2)C(C)CN1C(=O)c1cccnc1` (centres unmarked), `O=C(/C=C/c1cccnc1)c1ccncc1` is higher in “% Inhibition @ 10 uM” value: 0.0265% for the first, 1.96% for the second.

First: COC(=O)c1sccc1NC(=O)Cn1nc(Cc2ccncc2)c2ccccc2c1=O
Second: CN(Cc1ccccc1)C(=O)Cn1ncc2c3ccccc3nc-2c1O
The “% Inhibition @ 10 uM” value of the first is lower: -6.52% for the first, -4.25% for the second.

Going from `CCOC(=O)c1ccc(Nc2cc(-c3ccccc3)nc(-c3ccccc3)n2)cc1` to `COc1cccc(CSc2nc3ccncc3n2Cc2ccc(C(=O)NCc3ccco3)cc2)c1`, the “% Inhibition @ 10 uM” value rises from -9% to 1.72%.

First: CC(C)CCNc1cnn(C23CC4CC(CC(CC(=O)O)(C4)C2)C3)c(=O)c1Cl
Second: COC(=O)C(NC(=O)C(c1ccccc1)c1ccccc1)C12CC3CC(CC(C3)C1)C2 (centres unmarked)
The “% Inhibition @ 10 uM” value of the first is higher: -1.66% for the first, -2.15% for the second.

Going from `CCOC(=O)N1CCN(Cc2ccc(Cl)cc2)CC1` to `COc1ccc(/C=C2\SC(N3CCN(CCC#N)CC3)=NC2=O)cc1`, the “% Inhibition @ 10 uM” value falls from -2.56% to -4.33%.

Going from `CC(=O)N1N=C(c2ccc(C)cc2)Cn2c1nc1c2c(=O)n(C)c(=O)n1C` to `CCC(C)NC(=O)C1CCN(c2nnc(C)c3c(C)n(-c4ccc(OC)cc4)nc23)CC1` (centres unmarked), the “% Inhibition @ 10 uM” value rises from -3.75% to -0.696%.

Compared with `CCC[C@H](NC(=O)C1(NC(=O)c2cc(Cl)ccc2Cl)CCCCC1)C(=O)c1nc2ccccc2o1`, `Cc1cccc(-n2cnc3cc(C(=O)NCCN4CCOCC4)ccc32)c1` is higher in “% Inhibition @ 10 uM” value: -4.72% for the first, 3.04% for the second.

Compared with `Nc1nc(N)nc(Cn2c(-c3nonc3N)nc3ccccc32)n1`, `CCc1cccc(-n2nnc(-c3nc(-c4ccccc4C)no3)c2N)c1` is higher in “% Inhibition @ 10 uM” value: 1.67% for the first, 2.45% for the second.

Compared with `CC(=O)C1=C(C)Nc2ncnn2C1c1cccs1` (centres unmarked), `Cc1ccccc1C(=O)Nc1nc[nH]n1` is higher in “% Inhibition @ 10 uM” value: -2.98% for the first, -0.0372% for the second.

First: O=C(NCC1COc2ccccc2O1)C1CCC(CNc2c(N3CCCCC3)c(=O)c2=O)CC1 (centres unmarked)
Second: COc1nc(N2CCCCCC2)nc(N(Cc2ccccc2)Cc2ccccc2)n1
The “% Inhibition @ 10 uM” value of the first is lower: 1.22% for the first, 3.01% for the second.

Compared with `CSc1nc(N)c2ncc(-c3ccccc3)nc2n1`, `Cc1ccc(F)cc1NC(=O)c1sc2nc(-c3ccncc3)ccc2c1N` is higher in “% Inhibition @ 10 uM” value: 0.751% for the first, 8.66% for the second.

First: Cc1ccc(OCC(=O)Nc2nnc(C3CCCO3)s2)c(Br)c1 (centres unmarked)
Second: COc1ccc(CN2CCCCC2CO)cc1C (centres unmarked)
The “% Inhibition @ 10 uM” value of the first is lower: -2.98% for the first, 0.215% for the second.

First: C/N=C1/S/C(=C\c2ccc(OCc3ccccc3F)cc2)C(=O)N1C
Second: CCCN1C(=O)/C(=C\c2ccc(C(=O)O)cc2)S/C1=N/c1ccccc1
The “% Inhibition @ 10 uM” value of the first is higher: 1.86% for the first, -6.02% for the second.

Compared with `CC(=O)Nc1ccc(S(=O)(=O)NC2CCCCC2)cc1`, `CC(=O)Nc1cccc(NC(=O)[C@@H]2C[C@@H]2c2ccccc2)c1` is higher in “% Inhibition @ 10 uM” value: -2.55% for the first, 17.5% for the second.

Compared with `COc1ccc(-c2ccc(=O)n(Cc3cccc(Cl)c3)n2)cc1`, `COCCCN(C(=O)Cc1nc(-c2ccc(OC)cc2)no1)C(C)c1ccncc1` (centres unmarked) is higher in “% Inhibition @ 10 uM” value: 0.718% for the first, 1.68% for the second.

First: Cc1cccc(OCCCCN2CCCCC2)c1
Second: COC(=O)c1cc(S(=O)(=O)N2CC=C(c3ccccc3)CC2)cn1C
The “% Inhibition @ 10 uM” value of the first is lower: -5.94% for the first, 0.655% for the second.

Going from `CCOC(=O)c1cc(C(C)C)sc1NC(=O)CCCC(=O)O` to `COc1cc(C=C2C(=O)OC(C)(C)OC2=O)cc(Cl)c1O`, the “% Inhibition @ 10 uM” value rises from -1.1% to -0.467%.

Compared with `O=C1Cc2ccccc2C(c2ccccc2)N1` (centres unmarked), `O=C(C[n+]1ccccc1)Nc1noc2ccccc12` is lower in “% Inhibition @ 10 uM” value: 3.82% for the first, 2.19% for the second.

`N#C/C(=C\c1cccs1)c1nc(C2CC2)cs1` was tested, and the “% Inhibition @ 10 uM” value was 0.98%.
